The campaign covered roughly 310,000 compounds. About 14,000 (4.5%) showed an effect of 50% or more. Effects have a minus sign here. The list shows a part of the results.
target: human ether-à-go-go-related gene (hERG) potassium channel (human, UniProt Q12809); experiment: primary screen, population patch clamp on CHO cells stably expressing hERG
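Note: peak tail current of the secondary pulse compared with the same well before compound.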

Chain of human ether-à-go-go-related gene (hERG) potassium channel (Q12809 whole entry, looked up): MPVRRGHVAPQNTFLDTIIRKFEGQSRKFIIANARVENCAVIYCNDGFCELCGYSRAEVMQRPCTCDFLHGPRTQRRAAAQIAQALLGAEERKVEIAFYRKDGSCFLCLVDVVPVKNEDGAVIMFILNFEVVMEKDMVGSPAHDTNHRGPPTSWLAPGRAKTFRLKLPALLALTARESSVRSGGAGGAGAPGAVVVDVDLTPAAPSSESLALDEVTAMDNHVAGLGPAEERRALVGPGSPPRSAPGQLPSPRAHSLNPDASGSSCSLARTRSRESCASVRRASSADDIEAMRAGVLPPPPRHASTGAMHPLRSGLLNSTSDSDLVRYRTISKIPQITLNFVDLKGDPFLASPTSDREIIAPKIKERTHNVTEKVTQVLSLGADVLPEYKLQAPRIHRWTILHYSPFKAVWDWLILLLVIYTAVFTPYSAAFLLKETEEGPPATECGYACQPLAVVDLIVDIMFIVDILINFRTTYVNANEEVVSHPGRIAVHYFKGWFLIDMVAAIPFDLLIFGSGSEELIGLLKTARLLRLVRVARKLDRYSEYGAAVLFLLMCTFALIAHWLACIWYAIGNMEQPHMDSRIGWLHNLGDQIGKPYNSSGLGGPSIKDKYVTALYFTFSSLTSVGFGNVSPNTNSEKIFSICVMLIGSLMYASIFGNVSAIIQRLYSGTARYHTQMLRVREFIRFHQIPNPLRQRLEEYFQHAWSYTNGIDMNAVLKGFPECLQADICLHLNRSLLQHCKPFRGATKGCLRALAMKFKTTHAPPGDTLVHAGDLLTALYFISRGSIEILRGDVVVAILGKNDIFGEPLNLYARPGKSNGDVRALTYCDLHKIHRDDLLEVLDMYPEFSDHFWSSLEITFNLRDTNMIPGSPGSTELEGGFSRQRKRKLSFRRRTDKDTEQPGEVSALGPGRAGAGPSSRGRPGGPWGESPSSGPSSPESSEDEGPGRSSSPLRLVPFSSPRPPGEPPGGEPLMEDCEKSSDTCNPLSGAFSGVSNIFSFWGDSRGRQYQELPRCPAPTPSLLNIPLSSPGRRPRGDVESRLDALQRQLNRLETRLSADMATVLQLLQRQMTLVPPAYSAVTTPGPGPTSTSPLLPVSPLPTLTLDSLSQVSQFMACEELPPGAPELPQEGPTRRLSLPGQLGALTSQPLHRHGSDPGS

Structure (SMILES)	hERG current change (%, negative = inhibition) at 10uM [%]
Cc1noc(C(=O)N(C)c2ccccc2)c1Cl	27.2
CCOC(=O)c1c(C)oc2ccc(O)cc12	1.56
CCCCn1c(N)c(N(CC)C(=O)c2cccc(F)c2)c(=O)[nH]c1=O	12.7
CCS(=O)(=O)N1Cc2ccccc2CC1C(=O)Nc1nc(C)cs1 (centres unmarked)	13.2
Cc1cc(Oc2ccccc2)nc(SCC(=O)Nc2ccc(Cl)c(Cl)c2)n1	2.06
CC12CCC(=O)N1C(C(=O)NNC(=O)c1ccccc1F)CS2 (centres unmarked)	0.435
Cc1ccc(S(=O)(=O)N(C)C)cc1NC(=S)Nc1cccc2ccccc12	-5.33
COc1ccccc1N1CCN(C(=O)c2onc(C)c2Cl)CC1	-16.3
COCCCNC(=S)N1CCN(c2nc3ccccc3s2)CC1	-3.64
O=C(NCCC1=CCCCC1)c1cc(S(=O)(=O)N2CCOCC2)ccc1F	-26.1
COc1ccc(C(=O)N2CCCC(C(N)=O)C2)cc1S(=O)(=O)N1CCOCC1 (centres unmarked)	13.1
COc1ccc(CN(CC(=O)NCc2ccco2)C(=O)CNS(=O)(=O)c2ccc(C)cc2)cc1	-63.3
CC(C)(C)c1ccc(OCC(O)CN2CCc3ccccc3C2)cc1.Cl (centres unmarked)	-50.3
Cc1nn(-c2ccc(C(=O)OC(C)C)cc2)c(C)c1[N+](=O)[O-]	4.98
S=C(NCCc1ccccc1)Nc1ccccc1Cl	-2.31
Cc1cc2c(cc1S(=O)(=O)Nc1cccc(C)c1C)n(C)c(=O)c(=O)n2C	-26.9
CC1CC(C)CN(S(=O)(=O)c2ccc(C(=O)Nc3nnc(C4CC4)o3)cc2)C1 (centres unmarked)	-1.23
CCN(CC(=O)Nc1ccc2c(c1)OCCO2)C(=O)/C=C/c1ccc([N+](=O)[O-])cc1	-39.9
Cc1cc2occ(CC(=O)NC3=NCCS3)c2cc1C(C)C	7.45

Structure (SMILES)	hERG current change (%, negative = inhibition) at 10uM [%]
CCC(CC)C(=O)Nc1cccc(/C(C)=N\NC(=O)c2ccc(C)s2)c1	5.9
Cc1cc(C)cc(N(CC(=O)NCc2ccco2)S(=O)(=O)c2ccccc2)c1	-40.9
Cc1ccc(NC(=O)CSc2nc3[nH]ncc3c(=O)[nH]2)cc1Cl	3.67
Cc1ccc(C(=O)c2cc([N+](=O)[O-])ccc2N2CCN(C)CC2)cc1	-64.5
COc1ccc(CC(=O)O/N=C(\N)Cc2ccc([N+](=O)[O-])cc2)cc1	-46.5
COCCNC(=O)C(c1ccc(C)cc1)N(Cc1cccs1)C(=O)CCC(=O)Nc1ccccn1 (centres unmarked)	-0.699
Cc1cc(C)cc(NC(=O)NC(C)C2CCCO2)c1 (centres unmarked)	13.3
CCN(CC)CCOC(=O)c1ccc(N/C=C(/C#N)c2nc(-c3ccc(OC)cc3)cs2)cc1	17.9
CN1CCN(CC(=O)c2ccccc2F)CC1.O=C(O)C(=O)O	14.2
O=C(N/N=C/c1cc([N+](=O)[O-])ccc1O)c1cc(-c2ccccc2)nc2ccccc12	12.3
COC(=O)c1cccc(Nc2ccc([N+](=O)[O-])cn2)c1	5.91
Cc1cccc(S(=O)(=O)NC(Cc2c[nH]c3ccccc23)C(=O)O)c1 (centres unmarked)	6.03
COc1ccccc1CN(C)C(=O)CSc1nnc(C2CC2)n1C1CC1	6.78
COc1ccc(-c2cc(C(=O)N3CCN(C(=O)c4ccco4)CC3)[nH]n2)cc1	-31.6
O=C(CSC1=NS(=O)(=O)c2cc(F)ccc2N1)Nc1ccccc1	7.5
O=C(CCC(=O)Nc1ccc(F)cc1)N/N=C/c1ccc(O)cc1	12.4
COc1cc(C(c2c(C)[nH][nH]c2=O)c2c(C)[nH][nH]c2=O)cc([N+](=O)[O-])c1O	11.3
COCc1cc(=O)oc2cc(NS(=O)(=O)c3ccc(C)cc3)ccc12	16.6
COc1ccc(OCc2cc(C(=O)N[C@H]3CCCCNC3=O)no2)c(Cl)c1	-5.35

Structure (SMILES)	hERG current change (%, negative = inhibition) at 10uM [%]
CCN(C(=O)COC(=O)CCOc1ccccc1)c1c(N)n(Cc2ccccc2)c(=O)[nH]c1=O	16.1
Cc1cc(C(=O)O)c(C)n1Cc1ccncc1	12.6
Cc1ccc(C)c(N2CCN(C(=O)C3CCC3)CC2)c1	10.1
Cn1nnnc1SCc1ccc(C(=O)Nc2ccccc2F)cc1	8.72
CC(C)(C)c1nc2c(s1)CCc1onc(-c3ccc(Cl)cc3)c1-2	8.27
Cc1ccc(N(CC(=O)NCC2CCCO2)S(=O)(=O)c2ccc(Cl)cc2)cc1C (centres unmarked)	-19
COc1ccc(S(=O)(=O)N2CCN(CC(=O)c3[nH]c(C)c(C(C)=O)c3C)CC2)cc1OC	6.3
Cc1ccnc(NC(=O)c2cc3cc(F)ccc3s2)c1	15.8
Cc1ccc2cc(C3CC(c4ccco4)=NN3C(=O)CCC(=O)O)c(Cl)nc2c1 (centres unmarked)	-1.49
CCC/C(=N/NC(=O)c1cccc(Cl)c1)c1ccccc1	6.71
O=C(O)Cc1ccc(OCc2ccc(Cl)nc2)cc1	7.98
Nc1ccc(N2CCCCC2)cc1N1CCCCC1	9.08
COc1ccc(C(=O)Nc2ccc(C3=NNC(=O)CC3C)cc2NC(=O)c2ccc(OC)cc2)cc1 (centres unmarked)	-18.9
CCOc1ccc(CN2C(=O)c3ccccc3C2C(=O)NCc2cccnc2)cc1 (centres unmarked)	-25.1
CCCc1nc(-c2cc3ccccc3[nH]c2=O)no1	12.9
CC(=O)c1ccc(C(C)(C)c2ccc(C(C)=O)s2)s1	-4.83
COc1ccc(C2=NOC(C(=O)NCc3ccccn3)C2)cc1 (centres unmarked)	9.02
O=C(Nc1cccc(-c2csc(Nc3ccc(Cl)cc3)n2)c1)c1cc([N+](=O)[O-])cc(C(F)(F)F)c1	5.87

— article PMC4336329 (PLoS ONE, 2015)
